First the molecules themselves.
B1: OR4K15 (parent)
chain: GUUAACGGUCAUAGGCCAUGGAAACUAGGAGCACCAUUUCGCUGCCAGUGAAGAAAUGAACAAAGAAAAUCUGGGCCAGGCAGGCAUCAAAAGAAAUAGUCUUGCGCUCAACCAGAAAGUCUGUAAUCAUUUUAAGGGUA

The source gives no read counts; variants with many changes may rest on few reads.

In the data set the parent is B1. Kind of data set: self-cleavage, relative activity (ratio to wild type); higher = more cleavage; in vitro, sequencing; the parent is a self-cleaving ribozyme.
As for G14A A62G A117G, the self-cleavage came out at 1.1.
With A13G U72A U130C the figure was 0; with C17A U70C A89U, 0.27; with C16U A27C A33G A63G U108C, 0.
Turning to A13G U39A A78G A111G, the self-cleavage was 0.09.
With C16G A23G A24G, the self-cleavage stood at 0.8.
Turning to C17U U39C G119A U131C G138A, the self-cleavage came to 1.85.
With U12C A27G A60G the figure was 1.54.
For the variant U12G A33G A63G U131C G136C, the self-cleavage worked out at 1.14.
To C16U A60G U139A belongs 0.37; to A13C A23G A33G A52G U122C U127C, 0.04; to U12C A60G U87C, 0.96.
With U12C C25U U127C the figure was 0.72.
To U12C A110G U131C A135U belongs 0.13; to A13G U87A U108C, 0.09; to A13G U37C A110G, 0.21.
Consider U12C A54U U70C A114G, for which the self-cleavage turned out to be 0.09.
To U12C U38A G83U U87C U131C belongs 0.46.
With U12C A13U U49C U139A the figure was 0.39; with C16U U39C A94G A114G U124C, 0.55; with G14A A30G U120C, 0.77.
For A13G G41A U57C A91G U122C U127C, the self-cleavage stood at 0.28.
Take A13G U19A A24G A55C A60G A66G: the self-cleavage turned out to be 1.24.
With C17U A22G U37C U87C A110G A126G U131C the figure was 0.02; with G15A A52G A68G U122C A140G, 0.79.
To A13G A62G A67G A90G belongs 0.97; to C17U U103C U124C, 0.34; to G15A A36U A95G A116G U131C, 0.78.
Consider U12C A18G A118G, for which the self-cleavage was determined as 2.96.
To U12C A47G A78U A92G belongs 0.4; to C16U A66U U102A U122C, 0.32; to A13U U43C A96U, 2.14.
To A13U A22G G50U A51U belongs 0.89.
As to U12C A52G A62G G83U, the self-cleavage was determined as 0.54.
To A13G U38C A95U A111G belongs 0.09; to A13G U38A A91C C105A A129G, 0.02; to U12C U26C A67G C128A, 0.41.
For the variant G14U A23G A52G A96U U120C, the self-cleavage amounted to 1.06.
With A13U A23G U38C A98G U122C the figure was 1.26.
To U12C A52G A117G belongs 1.9; to G15A U39C A68G U122C, 0.98; to A13G U57C A62G U72A A91G A92G A118G, 0.07.
To C17U U39C U72C belongs 0.51; to A13U A56G U103C G106A U124C, 0; to A18C A51G U70C U108C C128U, 0.03.
Consider A13G C105U A118G, for which the self-cleavage amounted to 0.25.
Regarding C17U A52G U122C, the self-cleavage is 0.46.
To U12C A27G U39C U108C belongs 0.04; to C17U A111G U122G A135U, 0.02; to U12C U19C A54G A110G, 0.36.
With A13C G79C U100C U120C the figure was 0.21; with A13G A66U U102C, 1.75; with A13U A63G A68G U108C U131C, 0.02.
With G14U A27G A111G the figure was 0.06.
In the case of A13U A60G A118G, the self-cleavage turned out to be 0.91.
In the case of U12C U70C G136A, the self-cleavage amounted to 0.36.
Consider C16U U19C A66G A90G U120C U130C, for which the self-cleavage amounted to 0.72.
With G14A A23G U122A the figure was 0.73.
To A13U U37C A68G A96G belongs 1.38.
With A13G U19A A22G A59G U131C the figure was 1.35; with A13G U39C A140G, 1.83; with A13G A27G G28U G75C, 0.23.
For the variant A13G A27U A134G, the self-cleavage worked out at 1.4.
To C16A U57C A92G belongs 0.76; to U12C A69G A110G U127A, 0.52; to A13G U26C U87C A94G U127A, 1.7.
With A18C A23G A54G A63G U120C the figure was 0.2.
Consider A13G A30G U38C A67G A98G, for which the self-cleavage stood at 1.06.
To A13G A91G U132C belongs 0.92; to C17A A23G U57C, 0.7.
To A13G A89G A117G belongs 1.67.
With U12C A27U U38C A51U the figure was 1.81.
On to U12C A22G A64G A67G A78G A125U A126G U132C, for which the self-cleavage was 0.1.
With A13G A54G U57C U103C the figure was 1.62; with U12C A60G A126G, 1.16; with G14U A68G A82G, 0.61.
To A13G A59G A78U U127A belongs 0.89; to U12C A36U A68G, 1.18; to A13U A116G A118G A129U, 0.32.
To C17U U39C A52U belongs 0.79; to G14A U43C A68G U100C U130C, 1.11.
Turning to C17U A22U A62U, the self-cleavage was 0.66.
With U12C U57C U87A the figure was 1.29; with A13G U57C A66G, 0.25.
With A13G U38C A116G A140U, the self-cleavage was 0.61.
To A13C A22G U39C U49A belongs 1.21; to A13G A86G U100C, 1.73; to A13G A18G A52U A69G, 0.44.
With G15U A114G U130C the figure was 0.15.
With U12C A67G U72C U87C the figure was 0.12; with G14A A59U C61A U70C A90G, 0.09; with C16U G29U A117G G138A, 1.4.
In the case of U12C G58A U108C, the self-cleavage was 0.02.
To U12C U39C U120C C121U belongs 2.73; to C16U A47G U102A U122C, 0.32.
With U12C A23G A118G, the self-cleavage was 1.01.
To A13G A18U G137A belongs 0.77; to A13G G41A A54G U139C, 0.9; to U12C U37C A69G U108C, 0.02.
To U12C A22U A92G A118G belongs 0.48; to A13G A23G A92G, 1.42.
To U12C A33G C71U U132C belongs 0.04; to U12G A96G U100C, 1.69; to U12C A23G A62G A134U, 0.53.
As to A13U A24C A52G A54G A68G C112U A126C U130C, the self-cleavage turned out to be 0.01.
Turning to C17A A51G A96G, the self-cleavage turned out to be 0.77.
With U12G A68G U70C A96G the figure was 0.59.
For the variant U12C A67G A91G, the self-cleavage worked out at 0.69.
To A13G U39C A78C C121U belongs 0.39.
With U12C A95G U108G the figure was 0.03.
To A13U A18G A110G belongs 0.25.
For the variant C16G A91G U108C U124A, the self-cleavage amounted to 0.03.
C17U U38C A51G: the self-cleavage came to 1.21.
A13U U38C C46A U72A U132C: the self-cleavage was found to be 0.31.
With A13U A36U U39A A110U the figure was 0.86; with U12C U39C A52U A68G A82G A140G, 0.56.
Take U12C A98G A126G A135G: the self-cleavage amounted to 0.35.
With U12C A69G G99A the figure was 0.73; with U12C A36G U43C A82G A95U, 0.24.
For C17U A68G A110U U122C, the self-cleavage was determined as 0.66.
With U12C A55G U87C, the self-cleavage was determined as 0.88.
With A13U A117G U124C the figure was 1.18; with G14A U49C U131C, 0.67; with U12C A13G U43C A95G, 1.38.
To A13G A18U A23G A30U A90G G119A belongs 1.34.
To A13G U57C A78G belongs 0.74; to U12C A62C A82G A94G A135G, 0.86; to A13G A60G U103C G106A, 0.
As to A13G U38C U72C, the self-cleavage amounted to 0.76.
With U12C A33C U49C G106U the figure was 0.02; with U12C U122A G137U, 1.1.
With A13G G75C A89G A111G A116G the figure was 0.04.
Regarding A13U U19C A24G A62G A125G, the self-cleavage was 0.55.
Turning to A13C A62G A82U, the self-cleavage was determined as 0.37.
Regarding A13G C81U U100C U108C, the self-cleavage stood at 0.04.
With A13U A47U A69C A98G A117G the figure was 0.77.
To G15A A82U A95G U103C belongs 0.06; to G15A A23G C71U U102A A117G A140G, 0.17; to G14A U38C A90G A96G, 0.9.
With U12G G15U A51G U57C A86G A116G A118G A126U the figure was 0.45; with A13G A24G U43C, 1.25; with U12C A22G U38C A47G, 0.61.
For the variant G14U A24G A56G A116G U130C, the self-cleavage stood at 1.02.
With A13G A51G A69U U103C U127C U132C, the self-cleavage is 0.48.
To G14U A56G G83A A117G belongs 2.3.
With U12C A69G A91G U97A A111G the figure was 0.02; with A13G A18C A23U U43G A63G A90G, 1.14.
To U12C A47G A60G U108C A126U belongs 0.07; to A13U A30G U103G, 0.08.
Turning to U12C A59G C85G A135G, the self-cleavage came to 0.43.
With U12C A47G A54G A125G A135U, the self-cleavage is 0.09.
Regarding G14A U37C A59G, the self-cleavage was 1.66.
To U12C A86G U100C belongs 1.92.
To A13G A33G A52C A56U A78U U87C belongs 0.27; to A13G A68G A89G U132A, 1.14.
With G15C A23G U70A U108A the figure was 0.08.
For U12C A66U C88U A89G, the self-cleavage was found to be 1.18.
As for G15A A90G U122C, the self-cleavage is 1.04.
With C17U A30G A82G the figure was 0.75.
With A13U A95G A126G the figure was 1.82.
For U12C A51G A64G A86G A95G A118G, the self-cleavage worked out at 0.57.
To U12C U49A U72C belongs 0.4.
Take C17A U122C U124C: the self-cleavage stood at 0.6.
To A13G C32U A94G A116U belongs 0; to U12C U19C A94G, 1.37.
To A13U A18G A27G belongs 0.88; to U12C U70C A82U A89U A140C, 0.3.

The values above are taken from the RNAGym collection of RNA variant scans (doi:10.7554/elife.90254).
